Measured values from PubChem BioAssay (NCATS).
Inconclusive means that the source gave no clear call. Such entries were picked first, then a sample of the others. For some of these results: Potencies beside an inconclusive call are fits to weak or partial responses and may not hold up. Activity calls are given as the source filed them. The call rests on the fitted dose curve; in most records, active means well fitted curve in the direction sought with a large enough effect; inconclusive means small, poorly fitted or top-dose-only effect, or another doubt; inactive means no such curve, though single readings can be large; an effect the other way counts as inactive or inconclusive.

Tests used:
[1] = tested on: HaCat; assay: Cytotoxic Profiling of Annotated Libraries Using Quantitative High-Throughput Screening (AID 1296008); settings: Five cell lines viability, CellTiter-Glo ATP luminescence, 48-72 h; max response: hits give low values; further: nearly all actives have a fitted effect of over 60% in size
Outline: (§1)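 Cells exposed to compounds for 48 or 72 hr at 37 degrees Celsius. Viability read as ATP-coupled luminescence with CellTiter-Glo after 10 min at room temperature.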

[2] = tested on: KB-3-1; assay: as above; settings: Five cell lines viability, CellTiter-Glo ATP luminescence, 48-72 h; max response: hits give low values
Outline: as §1

[3] = tested on: astro; assay: Drug repurposing screens with cells derived from glioblastoma tumor samples (AID 1345199); settings: viability, ATP luminescence, 48 h; series mostly up to 45.9 µM; further: nearly all actives have a fitted effect of over 40% in size
Outline: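 Primary testing used CD133+ neurospheres from four GBM patients, seven concentrations, 48 h exposure and ATP-based viability; confirmation added three slower-growing patient lines.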

[4] = tested on: 3D7; assay: qHTS profiling for inhibitors of Plasmodium falciparum proliferation (AID 504749); further: nearly all actives have a fitted effect of over 60% in size; settings: P. falciparum in erythrocytes, SYBR Green DNA, 72 h; series mostly up to 28.7 µM
Outline: (§2)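 SYBR Green fluorescence (ex 485 nm, em 535 nm) reports parasite DNA after 72 h compound exposure of infected red cells at 0.3% parasitemia, 2.5% hematocrit; signal normalized to 0.29 uM artemisinin and vehicle wells.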

[5] = tested on: 7G8; assay: as above; settings: P. falciparum in erythrocytes, SYBR Green DNA, 72 h; series mostly up to 28.7 µM
Outline: as §2

[6] = tested on: NIH3T3; assay: Cytotoxic Profiling of Annotated Libraries Using Quantitative High-Throughput Screening (AID 1296008); settings: Five cell lines viability, CellTiter-Glo ATP luminescence, 48-72 h; max response: hits give low values; further: nearly all actives have a fitted effect of over 60% in size
Outline: as §1

[7] = qHTS assay to identify inhibitors of the type 1 interferon - major histocompatibility complex class I in skeletal muscle: Counter screen cell viability and HiBit confirmation (AID 1347412); settings: iHSKM muscle cells + IFN-b, HiBiT or CellTiter-Glo, 24 h; Viability; further: nearly all actives have a fitted effect of over 60% in size
Outline: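 HLA-B*08:01–HiBiT knock-in immortalized human myoblasts (C25cl48) stimulated with 4.0 ng/ml human IFN-beta and dosed with compound in a 12-point 1:3 titration (top final 46 uM). After 24 hrs at 37 C, HiBiT lytic luminescence or CellTiter Glo ATP read out.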
Potency means the concentration at half of the fitted maximal effect; tags describe the fitted curve by direction and shape.

Row | Structure (SMILES) | Potency [1] | Potency [2] | Potency [3] | Potency [4] | Potency [5] | Potency [6] | Potency [7]
1 | CCC1(C2=NCCN2)Cc2ccccc2O1 (stereo unspecified) | inconclusive: 5.96 µM [inhibitor, single point] | inconclusive: 23.1 µM [inhibitor, partial curve] | inconclusive: 1 µM [inhibitor, full curve] | inactive | inconclusive: 8.91 µM [inhibitor, partial curve] | – | –
2 | O=C(NCCN1CCC2(CC1)C(=O)NCN2c1cccc(F)c1)c1ccc2ccccc2c1 | inconclusive: 18.4 µM [inhibitor, single point] | inconclusive: 29.1 µM [inhibitor, single point] | – | – | – | inconclusive: 20.6 µM [inhibitor, single point] | –
3 | CC/C=C/C=C/C1(C)OC(OC)=C(C(=O)C2C(C)C(=O)c3cc(OC)c(O)c(O)c3C2(C)O)C1=O (stereo unspecified) | inconclusive: 14.2 µM [inhibitor, single point] | inconclusive: 7.96 µM [inhibitor, single point] | – | – | – | inconclusive: 10 µM [inhibitor, single point] | –
4 | C[C@@H]1O[C@@H](O[C@@H]2C=C3CC[C@@H]4[C@H](CC[C@]5(C)[C@@H](c6ccc(=O)oc6)CC[C@]45O)[C@@]3(C)CC2)[C@H](O)[C@H](O)[C@H]1O | active: 0.0422 µM | inconclusive: 0.0278 µM [inhibitor, full curve] | active: 0.0282 µM | – | – | inconclusive: 23.7 µM [inhibitor, single point] | inconclusive: 0.0198 µM [cytotoxic, full curve]
